Here are results for 8 molecules from publication PMC3589825, “The AFF4 scaffold binds human P-TEFb adjacent to HIV Tat” (eLife, 2013).

The labels stand for the following.
B1: cyclin T1 (CycT1) D169A (natural protein)
chain: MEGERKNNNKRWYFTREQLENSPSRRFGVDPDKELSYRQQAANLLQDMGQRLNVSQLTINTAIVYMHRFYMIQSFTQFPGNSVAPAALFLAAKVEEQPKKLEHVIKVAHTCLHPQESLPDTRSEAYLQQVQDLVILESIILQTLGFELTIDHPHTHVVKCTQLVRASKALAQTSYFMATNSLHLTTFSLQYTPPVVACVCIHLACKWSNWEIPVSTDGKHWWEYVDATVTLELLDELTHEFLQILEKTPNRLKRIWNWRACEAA
B2: cyclin T1 (CycT1) W210A (natural protein)
chain: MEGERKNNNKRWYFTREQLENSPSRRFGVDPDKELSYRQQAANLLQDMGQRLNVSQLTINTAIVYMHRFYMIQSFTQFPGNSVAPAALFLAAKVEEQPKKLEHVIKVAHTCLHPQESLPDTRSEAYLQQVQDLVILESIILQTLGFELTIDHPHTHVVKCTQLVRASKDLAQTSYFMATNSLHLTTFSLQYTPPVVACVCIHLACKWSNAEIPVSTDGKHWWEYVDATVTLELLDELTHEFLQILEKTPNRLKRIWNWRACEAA
B3: cyclin T1 (CycT1) E211A (natural protein)
chain: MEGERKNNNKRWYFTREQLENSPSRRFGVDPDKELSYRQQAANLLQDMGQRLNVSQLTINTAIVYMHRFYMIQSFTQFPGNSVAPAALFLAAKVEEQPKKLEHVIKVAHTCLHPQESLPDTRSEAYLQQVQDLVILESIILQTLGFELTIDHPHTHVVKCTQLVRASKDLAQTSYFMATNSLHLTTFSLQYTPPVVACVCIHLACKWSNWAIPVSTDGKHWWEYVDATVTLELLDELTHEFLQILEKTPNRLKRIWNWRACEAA
B4: cyclin T1 (CycT1) W207A (natural protein)
chain: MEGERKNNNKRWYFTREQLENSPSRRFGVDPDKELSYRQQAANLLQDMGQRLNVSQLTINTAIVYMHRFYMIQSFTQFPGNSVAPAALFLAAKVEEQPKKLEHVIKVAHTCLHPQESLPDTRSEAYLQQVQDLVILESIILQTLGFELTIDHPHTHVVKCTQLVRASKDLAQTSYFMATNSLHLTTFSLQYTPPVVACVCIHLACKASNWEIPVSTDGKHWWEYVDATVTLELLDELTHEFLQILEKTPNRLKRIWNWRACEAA
B5: cyclin T1 (CycT1) R165A (natural protein)
chain: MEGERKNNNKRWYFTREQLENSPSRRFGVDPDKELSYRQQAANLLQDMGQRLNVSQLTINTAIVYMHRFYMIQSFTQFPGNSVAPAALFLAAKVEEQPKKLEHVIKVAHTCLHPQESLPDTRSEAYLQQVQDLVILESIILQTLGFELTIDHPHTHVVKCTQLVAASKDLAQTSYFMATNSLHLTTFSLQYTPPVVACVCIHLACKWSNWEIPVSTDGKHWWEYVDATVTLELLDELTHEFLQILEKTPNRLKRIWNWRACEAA
B6: cyclin T1 (CycT1) F176A (natural protein)
chain: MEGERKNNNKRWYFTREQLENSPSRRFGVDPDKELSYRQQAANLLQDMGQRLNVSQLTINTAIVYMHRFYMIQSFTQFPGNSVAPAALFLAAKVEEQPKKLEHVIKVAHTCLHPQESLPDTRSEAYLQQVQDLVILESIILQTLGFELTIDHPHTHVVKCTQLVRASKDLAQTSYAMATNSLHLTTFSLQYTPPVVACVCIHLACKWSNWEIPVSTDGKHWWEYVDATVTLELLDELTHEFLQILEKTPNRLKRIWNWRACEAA
B7: cyclin T1 (CycT1) Y175A (natural protein)
chain: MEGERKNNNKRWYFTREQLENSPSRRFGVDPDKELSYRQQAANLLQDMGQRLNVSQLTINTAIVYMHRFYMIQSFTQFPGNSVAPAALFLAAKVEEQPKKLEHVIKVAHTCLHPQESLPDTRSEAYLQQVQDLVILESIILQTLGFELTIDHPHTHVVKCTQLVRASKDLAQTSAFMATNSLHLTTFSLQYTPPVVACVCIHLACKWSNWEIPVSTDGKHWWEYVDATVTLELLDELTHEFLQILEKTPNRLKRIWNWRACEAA
B8: cyclin T1 (CycT1), purified alone, wild type (natural protein)
chain: not shown
notes: source: purified

A word on the Kd: it is the equilibrium constant for the complex coming apart. The low end stands for tighter binding, the high end for weaker binding.

In the first assay the target is T1, fluorescein-labeled AFF4(32–67) peptide (human, N-terminus: C-FAM-GABA- (FAM = 5-carboxyfluoroscein, GABA = γ-amino-butyric acid spacer); C-terminal amide).
T1 construct: source: synthetic peptide (University of Utah DNA/Peptide Facility)
T1 peptide: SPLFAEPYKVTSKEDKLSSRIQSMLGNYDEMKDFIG
Kind of assay: fluorescence polarisation. As to conditions: both partners purified. (Polarisation of emitted light reports the rotation of a fluorescent probe.)
In the case of B1, binding was characterised by a dissociation constant (Kd) of 438 ± 41 nM.
In the case of B2, binding was put at a Kd of 2190 ± 246 nM.
The same measure, in the same setting: to B3 belongs 356 ± 29 nM.
Same read-out and setting: then B4, with 6050 ± 871 nM; and B5, with 1590 ± 171 nM.
B6 displayed a Kd of 645 ± 58 nM.
For B7, the Kd is 228 ± 18 nM.

In another assay the target is T2, AFF4(2–363) (human, UniProt Q9UHB7 2-363).
T2 sequence (looked up): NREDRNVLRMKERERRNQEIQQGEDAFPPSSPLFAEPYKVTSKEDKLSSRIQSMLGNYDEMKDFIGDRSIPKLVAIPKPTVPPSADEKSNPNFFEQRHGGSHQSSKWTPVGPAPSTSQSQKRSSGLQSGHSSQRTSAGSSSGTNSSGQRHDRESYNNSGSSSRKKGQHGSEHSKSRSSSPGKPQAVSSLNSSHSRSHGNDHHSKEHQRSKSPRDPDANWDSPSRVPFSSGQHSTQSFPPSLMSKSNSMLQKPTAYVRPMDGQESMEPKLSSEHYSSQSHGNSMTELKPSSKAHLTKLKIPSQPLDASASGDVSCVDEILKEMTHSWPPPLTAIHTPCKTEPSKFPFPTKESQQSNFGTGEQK
The experiment in a line: fluorescence polarisation; competition titration of unlabeled AFF4 segments against 5 nM fluorescent peptide with 75 nM CycT1, 45 nM P-TEFb or 6 nM Tat-P-TEFb; 25 mM HEPES pH 7.5, 100 mM NaCl, 10% glycerol, 0.1% NP40, 0.5 mM TCEP. As to conditions: both partners purified.
With B8, binding was characterised by a dissociation constant (Kd) of 115 ± 15 nM.
